Some of the results follow. Most values come without repeats; read them as rough.
How the values were obtained:
Assay in all cases: cell count relative to DMSO control; melanoma cells; higher = more viable cells
Conditions in all cases: library dose: low library concentration; 72 h
[1] = tested on: MZ2-MEL
[2] = tested on: MeWo
[3] = tested on: RPMI7951
[4] = tested on: RVH-421
[5] = tested on: SkMel28
[6] = tested on: SkMel2
[7] = tested on: SkMel30
[8] = tested on: UACC62
[9] = tested on: SkMel5
[10] = tested on: UACC257
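Further: cell number obtained by counting DAPI-stained nuclei in high-throughput microscope images with image analysis software, screen run in 1,536-well plates.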

Compound	cell count [1] [%]	cell count [2] [%]	cell count [3] [%]	cell count [4] [%]	cell count [5] [%]	cell count [6] [%]	cell count [7] [%]	cell count [8] [%]	cell count [9] [%]	cell count [10] [%]
Cn1c(=O)n(-c2ccc(C(C)(C)C#N)cc2)c2c3cc(-c4cnc5ccccc5c4)ccc3ncc21 + CC(C)C[C@H](NC(=O)[C@H](Cc1ccccc1)NC(=O)c1cnccn1)B(O)O [Bortezomib] (first compound 0.004 µM, partner dose 0.001 µM)	93.1	83.3	85.6	66.9	81.2	89.6	80.5	81	–	–
Cc1cn(-c2cc(NC(=O)c3ccc(C)c(Nc4nccc(-c5cccnc5)n4)c3)cc(C(F)(F)F)c2)cn1 [nilotinib] + Nc1nc(F)nc2c1ncn2[C@@H]1O[C@H](CO)[C@@H](O)[C@@H]1O [fludarabine] (first compound 0.2 µM, partner dose 0.2 µM)	90.7	42.8	93.9	84.2	74.7	–	18.5	78.5	–	–
Cc1cc(Nc2cc(N3CCN(C)CC3)nc(/C=C/c3ccccc3)n2)n[nH]1 + Cn1c(Nc2ccc(C(F)(F)F)cc2)nc2cc(Oc3ccnc(-c4ncc(C(F)(F)F)[nH]4)c3)ccc21 [CHIR265] (first compound 0.04 µM, partner dose 0.08 µM)	–	69.6	59.9	72.9	55.7	–	56.1	53.4	–	–
Cn1c(=O)n(-c2ccc(C(C)(C)C#N)cc2)c2c3cc(-c4cnc5ccccc5c4)ccc3ncc21 + COCC[n+]1c2c(n(Cc3cnccn3)c1C)C(=O)c1ccccc1C2=O [YM155] (first compound 0.004 µM, partner dose 0.0004 µM)	66	77.3	82.1	99.7	68.5	76.7	76.4	90.2	–	–
COc1ccc(C2=N[C@@H](c3ccc(Cl)cc3)[C@@H](c3ccc(Cl)cc3)N2C(=O)N2CCNC(=O)C2)c(OC(C)C)c1 [Nutlin-3] + COCC[n+]1c2c(n(Cc3cnccn3)c1C)C(=O)c1ccccc1C2=O [YM155] (first compound 0.1 µM, partner dose 0.0004 µM)	66.5	104	77.8	82.2	115	–	100	90.2	–	–
Cc1cn(-c2cc(NC(=O)c3ccc(C)c(Nc4nccc(-c5cccnc5)n4)c3)cc(C(F)(F)F)c2)cn1 [nilotinib] + Nc1ncn([C@H]2C[C@H](O)[C@@H](CO)O2)c(=O)n1 [decitabine] (first compound 0.2 µM, partner dose 0.1 µM)	84.7	101	91.9	78	85.3	93.5	113	78.4	–	–
CC(C)C[C@H](NC(=O)[C@H](Cc1ccccc1)NC(=O)c1cnccn1)B(O)O [Bortezomib] + CC1(C)NC(=O)N(c2ccc([N+](=O)[O-])c(C(F)(F)F)c2)C1=O [nilutamide] (first compound 0.001 µM, partner dose 1 µM)	–	93.3	78.5	56.1	116	95.5	129	79.1	123	85.9
Cc1cn(-c2cc(NC(=O)c3ccc(C)c(Nc4nccc(-c5cccnc5)n4)c3)cc(C(F)(F)F)c2)cn1 [nilotinib] + CNC(=O)c1cc(Oc2ccc(NC(=O)Nc3ccc(Cl)c(C(F)(F)F)c3)cc2)ccn1 [sorafenib] (first compound 0.2 µM, partner dose 0.4 µM)	101	94.4	83.7	118	–	91.2	104	99.4	–	–
COc1ccc(C2=N[C@@H](c3ccc(Cl)cc3)[C@@H](c3ccc(Cl)cc3)N2C(=O)N2CCNC(=O)C2)c(OC(C)C)c1 [Nutlin-3] + CO[C@H]1C[C@@H]2CC[C@@H](C)[C@@](O)(O2)C(=O)C(=O)N2CCCC[C@H]2C(=O)O[C@H]([C@H](C)C[C@@H]2CC[C@@H](OCCO)[C@H](OC)C2)CC(=O)[C@H](C)/C=C(\C)[C@@H](O)[C@@H](OC)C(=O)[C@H](C)C[C@H](C)/C=C/C=C/C=C/1C [everolimus] (first compound 0.1 µM, partner dose 0.02 µM)	82.6	79.2	72.1	82.3	69.1	–	57.9	70.6	–	–
Cn1c(=O)n(-c2ccc(C(C)(C)C#N)cc2)c2c3cc(-c4cnc5ccccc5c4)ccc3ncc21 + COc1ccc(-c2ccc3c(N4CCOCC4)nc(N4C[C@@H](C)O[C@@H](C)C4)nc3n2)cc1CO [KU0063794] (first compound 0.004 µM, partner dose 0.02 µM)	–	88.9	94.3	98.2	60.9	76.3	88.2	91.7	105	79
Cn1c(=O)n(-c2ccc(C(C)(C)C#N)cc2)c2c3cc(-c4cnc5ccccc5c4)ccc3ncc21 + CN(NC(=O)CC(=O)NN(C)C(=S)c1ccccc1)C(=S)c1ccccc1 [STA4783] (first compound 0.004 µM, partner dose 0.006 µM)	–	71.3	84.7	95.9	76.7	–	73.6	79.9	76.2	92

From the supplement of paper PMC4604168 (melanoma cell lines)
